Drawing on publication PMC7694937, this text covers binding for 1 substance.

By UniProt entry, the sequences of proteins in these tests, tags left out. Residues count along the entry.
UniProt Q96P20, residues 1-93: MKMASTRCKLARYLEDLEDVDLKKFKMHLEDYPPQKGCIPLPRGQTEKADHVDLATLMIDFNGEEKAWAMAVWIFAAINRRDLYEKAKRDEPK
UniProt P49023: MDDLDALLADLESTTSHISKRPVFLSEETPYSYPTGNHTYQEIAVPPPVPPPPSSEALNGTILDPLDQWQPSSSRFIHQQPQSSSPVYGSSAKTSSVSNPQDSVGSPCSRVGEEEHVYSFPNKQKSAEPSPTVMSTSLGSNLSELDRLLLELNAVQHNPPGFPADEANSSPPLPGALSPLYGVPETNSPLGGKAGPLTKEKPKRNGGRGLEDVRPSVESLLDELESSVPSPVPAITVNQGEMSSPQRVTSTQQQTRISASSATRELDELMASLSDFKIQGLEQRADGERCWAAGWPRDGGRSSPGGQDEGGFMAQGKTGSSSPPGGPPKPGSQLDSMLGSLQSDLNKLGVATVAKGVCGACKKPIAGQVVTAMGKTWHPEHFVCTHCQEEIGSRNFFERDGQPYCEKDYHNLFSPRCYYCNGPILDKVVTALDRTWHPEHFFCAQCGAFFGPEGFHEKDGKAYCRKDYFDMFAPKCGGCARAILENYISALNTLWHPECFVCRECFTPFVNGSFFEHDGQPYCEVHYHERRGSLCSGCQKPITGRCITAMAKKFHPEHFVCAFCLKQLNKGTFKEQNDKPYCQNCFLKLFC

Holding throughout (experiment): co-IP; HEK293T cells co-transfected with Flag- and HA-tagged plasmids; lysis in 50 mM Tris-HCl pH 7.5, 300 mM NaCl, 1% Triton-X, 5 mM EDTA, 10% glycerol; IP with anti-Flag antibody and Protein-G Sepharose, immunoblot with anti-HA and anti-Flag; in some panels cells treated with DMSO or ATP (5 mM) for 2 h; Fig. 6d-g shown as pairs of IPs whose antibodies the legend does not name

The target of assay [1] is T1, Flag-P2X7R(335–595) (UniProt Q99572).
T1 sequence: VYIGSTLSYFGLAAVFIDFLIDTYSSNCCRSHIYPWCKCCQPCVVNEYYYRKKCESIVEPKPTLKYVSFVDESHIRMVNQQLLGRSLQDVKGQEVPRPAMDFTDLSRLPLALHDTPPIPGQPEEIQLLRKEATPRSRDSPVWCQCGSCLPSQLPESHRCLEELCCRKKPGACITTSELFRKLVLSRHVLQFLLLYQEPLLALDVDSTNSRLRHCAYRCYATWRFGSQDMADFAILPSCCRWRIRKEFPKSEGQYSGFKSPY

Assay [2] has as its target T2, Flag-P2X7R(31–595) (UniProt Q99572).
T2 sequence: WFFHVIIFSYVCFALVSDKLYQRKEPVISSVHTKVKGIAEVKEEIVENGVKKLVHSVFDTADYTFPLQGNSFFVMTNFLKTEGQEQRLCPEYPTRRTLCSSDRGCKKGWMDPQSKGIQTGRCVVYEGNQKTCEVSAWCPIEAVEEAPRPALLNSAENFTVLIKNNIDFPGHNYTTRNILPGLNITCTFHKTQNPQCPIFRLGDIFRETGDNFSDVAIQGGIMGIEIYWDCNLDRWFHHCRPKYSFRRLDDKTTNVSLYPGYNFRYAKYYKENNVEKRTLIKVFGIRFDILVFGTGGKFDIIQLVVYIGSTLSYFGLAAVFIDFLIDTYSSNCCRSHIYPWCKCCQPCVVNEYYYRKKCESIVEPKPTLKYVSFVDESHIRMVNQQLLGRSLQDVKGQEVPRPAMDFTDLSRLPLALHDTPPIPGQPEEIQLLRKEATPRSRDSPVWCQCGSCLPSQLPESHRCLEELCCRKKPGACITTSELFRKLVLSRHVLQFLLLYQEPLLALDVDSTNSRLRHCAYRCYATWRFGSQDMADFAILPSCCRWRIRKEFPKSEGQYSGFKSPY

Assay [3] deals with T3, Flag-P2X7R(47–595) (UniProt Q99572).
T3 sequence: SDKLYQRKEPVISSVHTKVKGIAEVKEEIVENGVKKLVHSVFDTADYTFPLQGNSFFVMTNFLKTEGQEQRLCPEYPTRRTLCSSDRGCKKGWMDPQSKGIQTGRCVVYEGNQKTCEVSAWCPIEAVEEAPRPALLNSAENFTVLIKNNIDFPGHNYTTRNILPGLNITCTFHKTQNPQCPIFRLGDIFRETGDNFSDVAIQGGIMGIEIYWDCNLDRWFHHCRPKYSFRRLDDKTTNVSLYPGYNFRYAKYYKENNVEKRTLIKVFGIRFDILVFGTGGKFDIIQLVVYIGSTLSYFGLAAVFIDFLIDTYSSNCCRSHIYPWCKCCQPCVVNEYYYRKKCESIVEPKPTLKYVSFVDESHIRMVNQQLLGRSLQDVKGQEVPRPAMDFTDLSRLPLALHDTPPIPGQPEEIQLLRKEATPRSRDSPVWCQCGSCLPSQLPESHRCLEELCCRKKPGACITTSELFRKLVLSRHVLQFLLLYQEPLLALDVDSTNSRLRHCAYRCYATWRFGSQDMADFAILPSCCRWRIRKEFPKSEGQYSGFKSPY

Assay [4] deals with Flag-PYRIN (human) (UniProt Q96P20).
Assay [5] addresses T4, Flag-P2X7R(30–595) (UniProt Q99572).
T4 sequence: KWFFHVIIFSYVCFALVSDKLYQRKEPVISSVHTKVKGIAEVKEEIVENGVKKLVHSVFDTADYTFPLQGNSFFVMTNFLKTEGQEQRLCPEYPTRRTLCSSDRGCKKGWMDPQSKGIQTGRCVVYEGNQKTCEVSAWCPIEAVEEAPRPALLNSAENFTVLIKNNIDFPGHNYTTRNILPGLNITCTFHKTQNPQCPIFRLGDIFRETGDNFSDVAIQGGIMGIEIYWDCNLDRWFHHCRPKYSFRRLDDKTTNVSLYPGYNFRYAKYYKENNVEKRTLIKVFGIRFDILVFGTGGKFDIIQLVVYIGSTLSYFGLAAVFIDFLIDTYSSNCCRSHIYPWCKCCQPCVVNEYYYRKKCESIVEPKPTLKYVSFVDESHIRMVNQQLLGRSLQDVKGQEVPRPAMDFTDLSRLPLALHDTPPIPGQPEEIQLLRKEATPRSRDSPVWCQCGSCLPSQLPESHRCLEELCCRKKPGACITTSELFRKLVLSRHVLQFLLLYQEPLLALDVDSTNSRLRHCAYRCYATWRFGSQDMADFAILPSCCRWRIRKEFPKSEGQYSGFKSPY

These are yes or no findings as the source states them, for the method shown. In cells and extracts the contact can be indirect. Some results given as binding are weak or reduced against the parent protein; the word gives no strength. For some assays here: Where a sequence is shown, tags or fusion partners need not be part of it.

For HA-Paxillin (from UniProt P49023 1-591), the binding entry is “no binding” in assay [1]; “no binding” in assay [2]; “no binding” in assay [3]; “no binding” in assay [4]; “binds” in assay [5].
